# According to PubChem BioAssay AID463173 (ICCB-Longwood Screening Facility, Harvard Medical School, 2010):
# Screen size: about 52,000 compounds; about 1,700 (3.3%) were called active. Rule as the data show it: active = survival mostly below about 52% (no sharp cut-off); inactive = mostly above about 56%. The list shows a part of the results.
# Test system: Wild type
# Assay: growth inhibition of S. aureus wild type versus tarO mutant, primary screen, teichoic acid synthesis inhibitors, RN4220, OD600 (AID 463173)
# Conditions: S. aureus RN4220 wild type/DeltatarO growth, OD600, 18 h, hits give low values, screened at 18.75 µg/mL (by protocol)
row,Compound,survival
1,CCc1cccc(-n2nnc(-c3nc(-c4ccccc4Cl)no3)c2N)c1,inactive: 98%
2,COc1ccc2nc3sc(C(=O)N4CCCC4)c(N)c3cc2c1,inactive: 104%
3,Cc1cccc(N2CCN(C(=O)c3cnn(-c4cccc(Cl)c4C)c3C3CCNCC3)CC2)c1C,inactive: 66%
4,Cn1nnc2c(NCCc3ccccc3)ncnc21,inactive: 70%
5,O=C(NCC(c1cccnc1)N1CCc2ccccc2C1)C(=O)Nc1ccc(Cl)cc1 (stereo not drawn),inactive: 49%
6,Fc1ccc(-c2cn3ccccc3n2)cc1,inactive: 108%
7,Cc1ccc(-c2noc(CSc3nnc(Cc4ccccc4)n3-c3cccc(C)c3)n2)cc1,inactive: 61%
8,Cc1cc(C)c(NC(=O)Cn2c(=O)n(Cc3ccco3)c(=O)c3ccc(C(=O)NC4CCCC4)cc32)c(C)c1,inactive: 126%
9,Cc1ccc2c(c1)N(CC(=O)NCc1ccccc1Br)C(=O)c1cccnc1O2,inactive: 71%
10,CC(C)c1ccc(NC(=O)c2cccc3c2C(=O)N(C2CCCCC2)C3)cc1,active: 1%
11,CCCc1nc2ccccc2n2c(-c3ccc(C)cc3)c3c(=O)n(C)c(=O)n(C)c3c12,inactive: 64%
12,COc1ccccc1NC(=O)c1c(NC(=O)c2ccco2)sc2c1CCC(C(C)(C)C)C2 (stereo not drawn),inactive: 96%
13,CCSc1ncc(Cl)c(C(=O)Nc2c(C(=O)c3ccc(C)c(F)c3)oc3ccccc23)n1,inactive: 121%
14,CC(=O)c1cccc(NC(=O)c2c(N3CCCC3=O)c3cc(F)ccc3n2C)c1,inactive: 80%
15,CCCc1cc(NCc2cccnc2)n2c(nc3ccccc32)c1C#N,inactive: 107%
16,CCOCCCNC(=O)C(c1ccc(C)cc1)N(Cc1cccs1)C(=O)c1ccc(NC(C)=O)cc1 (stereo not drawn),inactive: 132%
17,CCC(=O)NC(c1ccccc1OC)c1cc(Cl)c2cccnc2c1O (stereo not drawn),inactive: 91%
18,Cc1ccc(NC(=O)Cn2c(=O)n(CCc3ccccc3)c(=O)c3c4c(sc32)CCCC4)c(C)c1,inactive: 95%
19,CCNC(=S)NC1CC2CCC1C2 (stereo not drawn),inactive: 111%
20,CCc1cccc(NS(=O)(=O)c2c(C)nc3sc(CC)nn3c2=O)c1,inactive: 72%

row,Compound,survival
1,COc1ccc(N2CC(NC(=O)c3cc4ccccc4o3)CC2=O)cc1OC (stereo not drawn),inactive: 70%
2,COc1cc(/C=C(\C#N)C(=O)Nc2ccc(C)cc2)ccc1OCc1cc(=O)n2nc(C)sc2n1,inactive: 81%
3,NC(=O)CSc1nnnn1C1CCCCC1,inactive: 119%
4,Cc1ccc(N2CC(NC(=O)c3ccc(S(=O)(=O)N4CCCCC4)cc3)CC2=O)cc1 (stereo not drawn),inactive: 71%
5,COC(=O)c1ccc(NC(=O)c2cc(=O)c3ccc(C)cc3o2)cc1,inactive: 107%
6,O=c1oc2ccc(Br)cc2cc1-c1csc(-c2ccccc2)n1,inactive: 70%
7,COc1ccc(C/C(N)=N/OC(=O)Cc2ccccc2)cc1,inactive: 104%
8,CCOC(=O)c1cc(NC(=O)c2ccc(C)cc2)c(=O)n2c1oc1ccc(Cl)cc12,inactive: 77%
9,CN(C(=O)C1=CC(c2ccc3c(c2)OCO3)=NS(=O)(=O)N1C)c1ccccc1,inactive: 89%
10,CCCC(=O)Nc1nnc2n1CCS2,inactive: 81%
11,O=C(CSc1nc2c(c(=O)[nH]1)CN(Cc1ccc3c(c1)OCO3)CC2)Nc1cccc(Cl)c1,inactive: 75%
12,Cc1nc2c(c(C)nn2-c2ccccc2)c(C)c1CCC(=O)NCCc1ccccc1,inactive: 91%
13,Cn1nnc2c(NCc3ccccc3Cl)ncnc21,inactive: 118%
14,CCOC(=O)c1noc2ncnc(N3CCC(C)CC3)c12,inactive: 70%
15,CCOc1ccc(Oc2nc(NC)nc(N3CCOCC3)n2)nn1,inactive: 101%
16,COc1ccc(CC(=O)NCc2nc3cccnc3n2Cc2ccc(C)cc2)cc1OC,inactive: 71%
17,Cc1cccc(Cn2cc3c(=O)n(CC(=O)Nc4ccc(C)c(F)c4)nc-3c3cc(F)ccc32)c1,inactive: 64%
18,COc1ccc(S(=O)(=O)N(Cc2ccccc2)Cc2nc3ccccc3c(=O)[nH]2)cc1,inactive: 113%
19,COc1cc2nc(C3CCC3)n(NC(=O)C(OC(C)=O)c3ccccc3)c(=O)c2cc1OC (stereo not drawn),inactive: 103%
20,CC(C)N(C(=O)Cn1c(SCC(=O)N2CCOCC2)nc2ccccc21)C(C)C,inactive: 93%

row,Compound,survival
1,COCCN1C(=O)c2[nH]nc(-c3cc(C)ccc3O)c2C1c1ccc(C(C)C)cc1 (stereo not drawn),active: 11%
2,CCc1ccccc1NC(=O)c1cc(S(=O)(=O)N2CCCC2)cn1C,inactive: 84%
3,Cc1cccc(N2CCN(C(=O)CCc3c(C)nc4ncnn4c3C)CC2)c1C,inactive: 76%
4,Cc1ccc(Cn2c(=O)n(CCCC(=O)NCc3ccccc3Cl)c(=O)c3ccccc32)cc1,inactive: 145%
5,COc1ccc(OC)c(NC(=O)c2c(NCc3cccs3)sc3c2CCCC3)c1,inactive: 95%
6,COC(=O)c1cnc(N2CCN(c3ccccc3F)CC2)c2ccccc12,inactive: 93%
7,Cc1ccc(NC(=O)C2CCN(c3nc4ccccc4[nH]3)CC2)c(C)c1,inactive: 101%
8,COc1ccc(C(=O)N(CC(=O)NC2CCCC2)C2CCCCC2)cc1OC,inactive: 106%
9,O=C(Cc1ccccc1)Nc1cccc(-c2cn3cccnc3n2)c1,inactive: 77%
10,COc1ccccc1NC(=O)NCCN1CCN(c2cccc(Cl)c2)CC1,inactive: 90%
11,CC(C)c1cccc(C(C)C)c1NC1=NS(=O)(=O)c2ccccc21,inactive: 66%
12,COc1cccc(CN(CCCN2CCOCC2)C(=O)c2cc3sccc3n2Cc2ccccc2)c1,inactive: 133%
13,O=C(Cn1c(-c2cccs2)cc2ccccc21)NCCc1ccc(Cl)cc1,inactive: 124%
14,CCOc1ccc(S(=O)(=O)Nc2ccc3c(c2)N(C(C)=O)CCC3)cc1,inactive: 71%
15,COC(=O)C(C)Sc1ncnc2c1c(-c1ccccc1)cn2-c1ccc(F)cc1 (stereo not drawn),inactive: 89%
16,Cc1cccc(C)c1-n1ncc(C(=O)N2CCN(c3ccccc3)CC2)c1C1CCN(C(=O)OC(C)(C)C)CC1,inactive: 83%
17,Cc1ccc(CNS(=O)(=O)c2cc3c(cc2C)NC(=O)CO3)cc1,inactive: 83%
18,N#CC(Cc1cccnc1)C(=O)Nc1ccccc1 (stereo not drawn),inactive: 110%
